Measured values from ChEMBL document CHEMBL4888484, “Replenishing the malaria drug discovery pipeline: Screening and hit evaluation of the MMV Hit Generation Library 1 (HGL1) against asexual blood stage Plasmodium falciparum ,using a nano luciferase reporter read-out” (2022).
Out of some 4,800 compounds screened, about 410 (8.5%) showed an effect of 50% or more. The list shows a part of the results.

System: Plasmodium falciparum
Assay: Confirmatory screen in NF54 pLDH assay, in single point, at 2uM, 72h
Format: functional, Erythrocyte
Settings: timepoint 72 hour

First: Cc1cccc(CN(Cc2cccc(C)n2)C[C@H]2CCCCO2)n1
Second: CN(Cc1ccc(F)c(F)c1)S(=O)(=O)C[C@H]1CCN(C(=O)OCc2ccccc2)C1
The “% Inhibition” value of the first is higher: 90% for the first, -1% for the second.

Going from `CCc1nc(NS(=O)(=O)c2cc(Cl)sc2Cl)no1` to `Cc1cc(S(=O)(=O)NC(=O)CCC(C)C)c(C)o1`, the “% Inhibition” value falls from 5% to -22%.

First: Cc1ccc(C2=C[C@@H](c3ccc(Cl)cc3)n3nc(NC(=O)c4ccccc4)nc3N2)cc1
Second: O=C(Nc1ccc(Cl)cc1)c1cccc(N2C(=O)C3CCC(c4ccccc4)CC3C2=O)c1 (configuration not stated)
The “% Inhibition” value of the first is higher: 90% for the first, 1% for the second.

First: CCc1n[nH]c(C(=O)N2CC3CCCN3CC2CC)c1Br (configuration not stated)
Second: CCN1CCC[C@@H]1CNC(=O)c1[nH]nc2c1CCc1ccccc1-2
The “% Inhibition” value of the first is higher: 11% for the first, -3% for the second.

Compared with `COc1ccc(F)cc1S(=O)(=O)N1CCc2noc(N)c2C1`, `COc1ccc(CCN2C(=O)COCC2=O)cc1OC` is lower in “% Inhibition” value: 63% for the first, 3% for the second.

Compared with `CCN(CCNC(=O)C1CC1c1cccc(Cl)c1Cl)CC(F)F` (configuration not stated), `CC(C)CN1C(=O)CC[C@@H](C(=O)NCCCOC(C)C)[C@@H]1c1cccnc1` is lower in “% Inhibition” value: 7% for the first, -16% for the second.

Going from `CCCCNC(=O)Nc1cccc(C#CCN)n1` to `N#Cc1ccc(NCCc2csc(N)n2)nc1`, the “% Inhibition” value falls from 3% to -4%.

Going from `CCC1=Nc2ccccc2N=C(NC(=O)C(C)C)[C@H]1c1ccc(F)cc1` to `Cn1c(-c2ccccc2)cn2cc(-c3ccc(F)cc3)nc12`, the “% Inhibition” value falls from 42% to -7%.

Compared with `Cn1ccc(CNC(=O)c2c(Br)cnn2C)n1`, `Cc1cc(NC(=O)Cn2cc(F)ccc2=O)n(C)n1` is higher in “% Inhibition” value: -10% for the first, 4% for the second.

First: COC[C@H](NCCc1cc(F)cc2c1OCOC2)C1CC1
Second: COCCN(CC1CN(Cc2cccs2)CC1c1cccc(F)c1)C(=O)C(C)C (configuration not stated)
The “% Inhibition” value of the first is higher: 82% for the first, -10% for the second.

Compared with `Cc1cc(C)cc(-n2c(=O)c3sccc3n(CC(=O)NCc3ccccc3Cl)c2=O)c1`, `COc1ccc(NC(=O)Cn2c(=O)n(CCc3cccs3)c(=O)c3ccccc32)cc1Cl` is higher in “% Inhibition” value: -17% for the first, 11% for the second.

Compared with `CS(=O)(=O)N1CCC(C(=O)Nc2cnn(Cc3c(F)cc(F)c(F)c3F)c2)CC1`, `O=C(c1c(F)cccc1F)N1C[C@@H]2CCCN2c2ccc(C(F)(F)F)cc21` is lower in “% Inhibition” value: 7% for the first, -14% for the second.

Compared with `CCc1ccc(-n2c(=O)[nH]c3nc(N4CCN(c5ccccc5F)CC4)ncc3c2=O)cc1`, `O=C1NS(=O)(=O)c2cc(N3CCN(Cc4ccccc4)CC3)ccc21` is higher in “% Inhibition” value: -25% for the first, 8% for the second.

Going from `CC1(C)CN(C(=O)c2c[nH]c3ccccc23)CC[S@@+]1[O-]` to `COc1ccc2[nH]c3c(c2c1)CCN(C(=O)c1ccc(C)c(C)c1)[C@@H]3c1ccccc1OC`, the “% Inhibition” value rises from -12% to 86%.

First: Cc1cccc(N2CCN(CCCNC(=O)CCn3c(=O)c(C)nc4cc(C)c(C)cc43)C[C@@H]2C)c1
Second: Cc1ccc([C@@H]2CC(=O)Nc3nc(N4CCN(CCO)CC4)nc(O)c32)cc1
The “% Inhibition” value of the first is higher: 12% for the first, 3% for the second.

`CCc1nnc2ccc(S(=O)(=O)N(CC#N)c3ccccc3)cn12` and `Cc1ccc(-c2cc3ncc(S(=O)(=O)c4ccccc4)c(-c4cccs4)n3n2)cc1` are the same in “% Inhibition” value: -16% for the first, -16% for the second.

First: COc1ccccc1C1CC(=O)Nc2nc(N3CC(C)CC(C)C3)nc(O)c21 (configuration not stated)
Second: COc1ccc(S(=O)(=O)N2CC[C@@H]3[C@@H](COCCN3Cc3ccccc3)C2)cc1
The “% Inhibition” value of the first is lower: -5% for the first, 0% for the second.

Compared with `CCn1nccc1C(=O)N1CC[C@H](CC(=O)NCc2ccncc2)C1`, `CC[C@H]1Cn2c(C(=O)N3CCN(C(=O)c4ccco4)CC3)cc3c(Cl)ccc(c32)O1` is lower in “% Inhibition” value: 6% for the first, -5% for the second.

Going from `O=C(NCCc1cccs1)c1cnn2c(-c3ccc4c(c3)OCO4)ccnc12` to `Nc1nccnc1C(=O)NCc1ccc(Cn2ccnc2)cc1`, the “% Inhibition” value rises from -8% to 3%.

Compared with `N#Cc1ccc(N[C@H]2CCCN(Cc3ccc(F)cc3F)C2=O)cn1`, `FC(F)Oc1ccc(-c2c[n+](-c3cccc(C(F)(F)F)c3)c3n2CCCCC3)cc1` is higher in “% Inhibition” value: -11% for the first, 42% for the second.

First: COc1cc(NC(=O)c2cccc3c(Br)cccc23)ccc1NC(=O)c1ccccc1Cl
Second: CN1C(=O)[C@H](OC(=O)COc2ccccc2)N(c2cccc(Cl)c2)C1=O
The “% Inhibition” value of the first is higher: 6% for the first, -21% for the second.

Going from `Cc1cccn(Cc2nnnn2C2CC2)c1=O` to `Cc1nnc(Cn2ncnc2-c2ccccc2Cl)o1`, the “% Inhibition” value falls from 7% to 3%.

Compared with `FC(F)(F)c1nnc(NCc2cncs2)s1`, `CC[C@@H](CCNS(=O)(=O)c1cn(C(F)F)nc1C)n1ccc(C(F)(F)F)n1` is lower in “% Inhibition” value: -7% for the first, -9% for the second.

Going from `Cc1cc(NC(=O)c2occc2-c2ccccc2)sn1` to `O=C(NC(Cn1ccccc1=O)c1ccccc1)C1CCOC1` (configuration not stated), the “% Inhibition” value rises from 2% to 7%.

Compared with `Cc1cc(C(=O)NC(C)C)nc(N(C)C)n1`, `Cc1noc(C(C)(C)NC(=O)Nc2c[nH]nc2-c2nccs2)n1` is lower in “% Inhibition” value: 8% for the first, -3% for the second.

First: CC1(C)C2CCC13CS(=O)(=O)N=C3C2 (configuration not stated)
Second: O=c1[nH]c(=O)n(-c2ncnc3c2cnn3-c2ccccc2)cc1Cl
The “% Inhibition” value of the first is higher: 17% for the first, 9% for the second.
